According to the supplement of paper PMC11417369:
± gives the standard deviation of the averaged measurements. Some of the results follow.

What follows are sequences tested on PfAP2-EXP AP2 domain (GST-tagged) (assay: gcPBM binding intensity (ln(normalized median fluorescence intensity)); higher = stronger DNA binding).
Summary of the method: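 DNA-binding domains from P. falciparum, fused to GST and produced in E. coli, were put on an Agilent 4 × 180k double-stranded probe array for 1 h in 1× PBS holding 1% milk, 0.2 mg/ml BSA, 0.5% salmon testes DNA and 0.03% Triton X-100. Probes were primer-extended, 36 bp long and drawn from intergenic genomic regions, with negative controls included. After Alexa488 anti-GST antibody detection and a 488 nm scan, binding intensity was set as the highest Masliner-normalised natural-log median intensity across replicate spots of either probe orientation.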

Point of comparison: “GTTTATATTTAATTTTTTTGTTTTTTTGTGTAATTC [XGTACX_negctrl_site194]”, “gcPBM binding intensity (ln)” value 8.53 ± 0.47. Against it:
- GAATAAAGGAGAGGCACACATATATATATATATATA [CACACA_site2452] — higher, 10.2 ± 0.25
- TTTATATTTAAATGCATGCACTTTCTATTTTTTTTT [GTGCAC_site9959] — higher, 10 ± 0.33
- GACCATGTTAACAAAGCATGCATCTCTATATGTTTA [TGCATGCA_site358] — within error, 8.87 ± 0.49
- TTATTTTATAAATCGAAAACAAACAAAAAAAAGATA [XGTACX_negctrl_site178] — within error, 8.7 ± 0.49
- TTGCTGTATTTATTTTGTACACATTTGGCATTATAT [XGTACX_site3408] — within error, 9.02 ± 0.43
- AAAAAAAAAAGAAAGAGTACTTTTTCAATACATATA [XGTACX_site2468] — within error, 8.34 ± 0.43
- AAGAAAAACAATACGTGTACCAAGCATCCTACTAAC [XGTACX_site6628] — within error, 8.69 ± 0.33
- ACATAAAATAAATATACACACATATGTATATATCAT [CACACA_site7424] — within error, 8.22 ± 0.29
- TTAATATAATTAAAATGTACTTATTTGTAAACATTA [XGTACX_site6313] — within error, 7.99 ± 0.46
- TTTGTAGCACTTAAGAGTACAAAATGTATAAGATTT [XGTACX_site2321] — within error, 8.64 ± 0.42
- ATATATATAAACAAAAGTACATATATAAATTCATTT [XGTACX_site3482] — within error, 8.38 ± 0.19
- TTAAAGTTACATTCGACACACACATAACAACTAAAT [CACACA_site9130] — within error, 8.79 ± 0.52
- TCTTATATTATATTGTGTATTAAAATTTAACTTCAA [TGCATGCA_negctrl_site565] — within error, 8.42 ± 0.38
- ATATATGTATATATGTACATGAATATATAAAGAAAA [CACACA_negctrl_site315] — within error, 8.79 ± 0.32
- ACAAATAAATAAATATGTACTTAATTATATAATTGA [XGTACX_site5626] — within error, 8.26 ± 0.29
- TATTTATACTAATATGCATGTAATCGAAATACAGCT [TGCATGCA_site457] — within error, 8.64 ± 0.36
- ATCTATTCACACTTTTAAAAATTAAATATATTATAT [TGCATGCA_negctrl_site610] — within error, 8.75 ± 0.44
- TAATTTTTTTTTTATAGTACACATATTAAAGAATTA [XGTACX_site2485] — within error, 8.16 ± 0.36
- AATAAAAAAAAAATATATATTTTTTTTTTTTTTTTT [CACACA_negctrl_site54] — within error, 8.54 ± 0.19
- TATATATATATATGTAGTACTTTACAAAATAATTCG [XGTACX_site5322] — higher, 9.98 ± 0.49
- GCATAACCTTTATATTGTACATATACCTTTATTGTT [XGTACX_site6046] — within error, 9.16 ± 0.45
- AATAAATTCATGATAGTGCAAAAATTATTTTTGTTA — within error, 8.52 ± 0.19
- TAGTTATCACATTGCACACACATTTCCTTTTACATT [CACACA_site7589] — within error, 9.06 ± 0.41
- TTATTTATACGCTATGAGTTTGATACAAACAATTAA [XGTACX_negctrl_site456] — within error, 8.85 ± 0.52
- TTTTTACGGAATTAGAGAAAAGAAATAAAAAAAAAA [XGTACX_negctrl_site436] — within error, 8.38 ± 0.46
- TTTATATTTATGTAGGTGCATTTGTTTACAACATAT [GTGCAC_site9511] — within error, 9.04 ± 0.092
- TATTCAAAGAAAAACTGTACGTGTAGCCTACATCCT [XGTACX_site7707] — within error, 8.46 ± 0.34
- TTTTTTGTTATTTTCCGTTTTTTTCCATTATAATTT [GTGCAC_negctrl_site461] — within error, 8.95 ± 0.59
- ACGTTAAAAACAAGTTGTACACAATAAATTATTCTT [XGTACX_site6321] — within error, 8.82 ± 0.54
- ATTATCCATCAAAAGGTGCAAATTTTTAATTATAAA [GTGCAC_site9932] — within error, 8.45 ± 0.13
- AAAGATGATAAAATATGTACACACAGTTTATACATT [XGTACX_site8703] — within error, 8.24 ± 0.092
- TGAGTCTTTTACATTGCACACACATTTCTTTCCTTT [CACACA_site8978] — within error, 9.04 ± 0.47
- ATATCAATATAAAGTACACACTATAGTATGTATTAT [CACACA_site5286] — within error, 8.55 ± 0.45
- ATTATTAATAATTGTGTGCACAAATATTTATATGCT — within error, 8.86 ± 0.092
- ATATTGTATTATCTTTATGTACCAAAAAAAAAAAAA [CACACA_negctrl_site1036] — within error, 8.36 ± 0.52
- ATGAACATACAATATACACACATATAGATTTATATT [CACACA_site6524] — within error, 8.48 ± 0.52
- TCATTATTAATATGTAGTACATTATATGATATGTAT [XGTACX_site8978] — within error, 8.45 ± 0.24
- TTCTTTTTAAATTACACACACATATATATCTGTATA [CACACA_site5863] — within error, 8.78 ± 0.44
- TAAAGGATTTTCGAAGCATGCCACCTGTGACATACT [TGCATGCA_site130] — within error, 8.32 ± 0.49
- TTTATACAATTAGACACACACAAAAAGTATATATAT [CACACA_site1082] — within error, 8.76 ± 0.44
- ATGGGTATATTTCCACGTACAAAAAATCCGAATTGC [XGTACX_site1490] — within error, 8.6 ± 0.38
- ATATAATTACATTGATGTACACGAAATGATTAACAT [XGTACX_site5183] — within error, 8.67 ± 0.34
- CAAATACCCGGACACACACACACAAAAAAAAAAAAA [CACACA_site4441] — within error, 8.38 ± 0.49
- CATTCAAAGAAAAACTGTACGTGTAGCAAACGTCAT [XGTACX_site2576] — within error, 8.42 ± 0.73
- GTATATATTAAAAAAAAAAAAAAAAAATTAAAATTA [CACACA_negctrl_site572] — within error, 7.95 ± 0.45
- AAAAAAAAAATTCATTGTACATATATATATATATAT [XGTACX_site8346] — higher, 10.2 ± 0.22
- TAGACTGGACATTAATGTACATAAATATATATGTAT [XGTACX_site7726] — within error, 8.71 ± 0.43
- TATAAGAAAAATAACACACACATAAACATATATACA [CACACA_site2785] — within error, 8.98 ± 0.41
- GGAATATTAATAAGAGTGCATTTTGTATTCAATATG — within error, 8.61 ± 0.014
- TGGTTATTTATCTTTATTATAAATATTTACAAATAA [CACACA_negctrl_site1773] — within error, 8.4 ± 0.35
- ATATATATATATATATGTACTTATTTATATATTTAT [XGTACX_site7811] — higher, 10.1 ± 0.25
- ATAAGAAGAAGAAAAACACACATATGTAGATATATA [CACACA_site7469] — within error, 9 ± 0.58
- AAATAATATTTTACATGTACATAATAATTATTGGAT [XGTACX_site2783] — within error, 8.66 ± 0.28
- ATGCTTCCTTAGGAATGTACACACATATATAATATG [XGTACX_site873] — within error, 8.69 ± 0.35
- ATAAAAATAAAAAACTGTACATACAAGATGTTACAG [XGTACX_site6690] — within error, 8.29 ± 0.23
